Experimental data: the RNAGym collection of RNA variant scans (doi:10.1101/gad.245936.114)
This sample is rich in variants without activity.

B1: tRNA (parent)
chain: CUCUCGGUAGCCAAGUUGGUUUAAGGCGCAAGACUUUAAUUUAUCACUACGAAAUCUUGAGAUCGGGCGUUCGACUCGCCCCCGGGAGAUUUUUUCCUCGAGCAA

Variants of: B1
Assay: nonsense suppression (GFP-seq) (ratio to wild type); higher = more function; SUP4oc tRNA, yeast GFP reporter sort-seq
Procedure, shortened: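 Raffinose/galactose medium with 80 mg/L adenine was used to grow yeast carrying genome-integrated tRNA variants (~3% random-mutation library), RFP, and a galactose-driven GFP ochre reporter. Cells went into GFP/RFP bins, which were Illumina-sequenced, and variants with ≥100 reads and ≥30 cells were scored. Nonsense suppression (GFPSEQ) is the per-bin median GFP/RFP weighted by estimated cell share and expressed relative to the unmutated parent tRNA.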

Nonsense suppression, 0.0971:
CACCCGGUAGCCAAGCUGGUUUAAGGCGCAAGACUUUAAUUUAUCACUACGAAAUCUUGAGAUCGGGCGUUCGACUCGCCCCCGGGAGAUUUUUUCCUCGAGCAA

Nonsense suppression, ≤ 0.026:
CACUCGGUAGCCAAGUUGGUUUAAGGCGAAAGACUUUAAUUUAUCACUACGAAAUCUUGAGAUCGGGCGUUCGACUCGCCCCCGGGCGAUUUUUUCCUCGAGCAA
CACUCGGUAGCCAAGUUGGUUUAAGGCGCAAGACUUUAAUUUAUCACUACGAAAUCUUCAGAUCGGGCGUUCGACUCGCCCCCGGGAGAUUUUUUCCUCGAGCAA
CACUCGGUAGCCAAGUUGGUUUAAGGCGCAAGAAUUUAAUUUAUCACUACGAAAUCUUGAGAUCGGGCGUUCGACUCGCCCCCGGCAGAUUUUUUCCUCGAGCAA
CACUCGGUAGCCAACUUGGUUUAAGGCGCAAGACUUUAAUUUAUCACUACGAAAUCUUGAGAUUGGGCGUUCGACUCGCCCCCGGGAGAUUUUUUCCUCGAGCAA
CACUCGUUAGCCAAGUUGGUUUAAGGCGCAAGACUUUAAUUUAUCACUACGAAAUCUUGAGAUCGGGCGUUCGACUCGCCCCCGGGAGAUUUUUUCCUCGAGCAA
CACUCGGUAGCCAAUUUGGUUUACGGCGCAAGACUUUAAUUUAUCACUACGAAAUCUUGAGAACGGACGUUCCACUCGCCCCCGGGAGAUUUUUUCCUCGAGCAA
CACUCGGUAGCCAAGUUGGUUUAAGGCUCAAAACUUUAAUUUAUCACUACGAAAUCUUGAGAUCGGGCGUUCGGCUCGCCCCCGGGAGAUUUUUUCCUCGAGCAA
CACUCGGUAGCCAAGUUGGUUUAAGGCGCAAGACUUUAAUUUAUCACUACGAAAUCUUGAGAUCGUGCGUUCGACCCGCCCCCGGGAGAUUUUUUCCUCGAGCAA
CACUCGGCAGCCAAGUUGGUUUAAGGCGCAAGAUUUUAAUUUAUCACUACGAAAUCCUGAGAGCGGGCGUUCGACUCGCCCCCGGGAGAUUUUUUCCUCGAGCAA
CACUCGGUAGCCAAGUUCGUUUAAGGGGCAACACUUUAAUUUAUCACUACGAAAUCUUGAGAUCGGGUGUUCGACUCGCCCCCGGGAGAUUUUUUCCUCGAGCAA
CACACGAUAGCCAAGUUGGUUUAAGGCGCAAGACUUUAAUUUAUCACUACGAAAUCUUGAGAUCGGGCGUUCGACUCGCCCCCGGGAGAUUUUUUCCUCGAGCAA
CACGCGGUAGCCAAGUUGGUUUAAGGCGCAAGACUUUAAUUUAUCACUACGAAAUCUUGAGAUCGGGCGUUCCACUCGCCCCCGGGAGAUUUUUUCCUCGAGCAA
CACUCCGUAGCCAAGUUGCUUUACGGGGCAAGACUUUAAUUUAUCACUACGAAAUCUUGAGAUCGGGCGUUCGACUCGCCCCCGGGAGAUUUUUUCCUCGAGCAA
CACUCGGUAGCCAAGUUGGUUUAAGCCGCAAGACUUUAAUUUAUCACUACGAAAUCUUGAGAUCGGGCGUUCGACUCGCCCGCGGGAGAUUUUUUCCUCGAGCAA
CACUCGGGAGCCAAGUUGGUUGAAGGCGCAAGACUUUAAUUUAUCACUACGAAAUCUUGAGAUCGGGCGUUCGACUCGCCCCCGGGAGAUUUUUUCCUCGAGCAA
CACACGGUAGCCAAGUUGGUUUAAGGCGCAAGACUUUAAUUUAUCACUACGAAAUCUUGAGAUCGCGCGUUCGACUCGCCCCCGGGCGAUUUUUUCCUCGAGCAA
CACUCGGUAGCCAAGUUGGUUUAAGGCGCAAGACUUUAAUUUAUCACUACGAAAUCUUGAUAUCGGGCGUUCGCCUCGCCCCCGGCAGAUUUUUUCCUCGAGCAA
CACUCGGCAGCCAAGUUGGAUUAAGGCGCAAGACUUUAAUUUAUCACUACGAAAUCUUGAGAUCGGGCGUUCGACUCGCCCCCGGGAGAUUUUUUCCUCGAGCAA
CACUCGGUAUCCAAGUUGGUUUAAGGAGCAAGACUUUAAUUUAUCACUACGAAAUCUUGAGAUCGGGCGUUCGACUCGCCCCCGGGAGAUUUUUUCCUCGAGCAA
CACUCGGGAGCGAAGUUGGUUUAAGGCGCAAAACUUUAAUUUAUCACUACGAAAUCCUGAGAUAGGGCGUUCGACUCGCCCCCGGGAGAUUUUUUCCUCGAGCAA
CACUCAGUAGCCAAGUUGGUUUAAUGCGCAAGGCUUUAAUUUAUCACUACGAAAUCUUGAGCUCGGGCGUACGACUCGCCCCCGGGAGAUUUUUUCCUCGAGCAA
CACUCGGUAGCCAAGUUGGUUUAAUGUGCAAGACUUUAAUUUAUCACUACGAAAUCUUGAGUUCGGGCGUUCGACUCGCCCCCGGGAGAUUUUUUCCUCGAGCAA
CACUCGGUAGCCAAGUUCGUUUAAGGCGCAAGACUUUAAUUUAUCACUACGAAAUCUUGUGAUCGGGCGUUCGACUCGCCCCCGGGAGAUUUUUUCCUCGAGCAA
CACUCGGUAGCCAAAUUGGUUUAAGGCGCAAGACUUUAAUUUAUCACUACGAAAUCUUGAGAUCGGGCGUUCGACUCGCCCCCGGGAGAUUUUUUCCUCGAGCAA
CACUCGGUAGCCAAGUUGGUUUAAGGCGCAAGACUUUAAUUUAUCACUACGAAAUCUUGAGAUCGGGCGUUCGACUCGCCCCCAGGAGGUUUUUUCCUCGAGCAA
CACUCGUUAGCCAAGUUGGUUUAAGGCGCAAGACUUUAAUUUAUCACUACGAAAUCUUGAGAUCGGGCGGUCGACUCGCCCCCGGGAGAUUUUUUCCUCGAGCAA
